Data from PMC4336329 (PLoS ONE, 2015).
The whole screen tested about 310,000 compounds, of which about 14,000 (4.5%) showed an effect of 50% or more. Effects have a minus sign here. The list shows a part of the results.

These compounds were tested against human ether-à-go-go-related gene (hERG) potassium channel (human, UniProt Q12809) (assay: primary screen, population patch clamp on CHO cells stably expressing hERG).
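Also: peak tail current of the secondary pulse compared with the same well before compound.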

human ether-à-go-go-related gene (hERG) potassium channel, sequence (Q12809 whole entry, looked up): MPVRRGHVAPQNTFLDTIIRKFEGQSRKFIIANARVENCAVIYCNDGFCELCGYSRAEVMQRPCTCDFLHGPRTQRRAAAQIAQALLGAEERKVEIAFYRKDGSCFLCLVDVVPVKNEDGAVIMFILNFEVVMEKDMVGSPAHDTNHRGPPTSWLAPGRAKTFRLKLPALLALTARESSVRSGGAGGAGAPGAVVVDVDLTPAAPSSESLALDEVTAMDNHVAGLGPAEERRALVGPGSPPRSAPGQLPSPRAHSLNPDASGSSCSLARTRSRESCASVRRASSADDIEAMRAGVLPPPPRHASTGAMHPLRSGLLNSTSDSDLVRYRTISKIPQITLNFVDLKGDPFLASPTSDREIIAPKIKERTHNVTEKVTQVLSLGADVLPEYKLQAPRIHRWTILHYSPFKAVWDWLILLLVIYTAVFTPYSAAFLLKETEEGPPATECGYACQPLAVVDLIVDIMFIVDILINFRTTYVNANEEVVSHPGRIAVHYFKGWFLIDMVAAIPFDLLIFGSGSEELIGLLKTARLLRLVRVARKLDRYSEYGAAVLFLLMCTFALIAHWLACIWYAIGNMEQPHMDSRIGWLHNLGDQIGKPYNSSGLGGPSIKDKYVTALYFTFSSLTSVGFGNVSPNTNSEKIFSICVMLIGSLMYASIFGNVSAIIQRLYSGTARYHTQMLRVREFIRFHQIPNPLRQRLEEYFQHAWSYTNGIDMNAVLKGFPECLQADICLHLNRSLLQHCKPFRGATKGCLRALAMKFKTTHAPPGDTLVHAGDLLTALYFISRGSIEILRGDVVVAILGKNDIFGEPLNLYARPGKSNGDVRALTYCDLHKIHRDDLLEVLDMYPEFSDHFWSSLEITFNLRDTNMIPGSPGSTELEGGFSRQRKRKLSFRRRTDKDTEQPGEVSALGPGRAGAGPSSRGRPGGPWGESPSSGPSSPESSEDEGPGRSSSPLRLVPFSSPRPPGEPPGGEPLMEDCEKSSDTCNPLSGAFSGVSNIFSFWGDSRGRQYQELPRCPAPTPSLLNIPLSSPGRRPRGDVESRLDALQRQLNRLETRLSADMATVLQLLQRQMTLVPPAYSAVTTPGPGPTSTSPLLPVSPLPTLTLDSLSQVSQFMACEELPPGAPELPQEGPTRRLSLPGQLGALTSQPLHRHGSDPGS

| SMILES | hERG current change (%, negative = inhibition) at 10uM [%] |
| --- | --- |
| COc1cc(C(CCN2CCOCC2)c2c(OC)cc(OC)c3c(C)cc(=O)oc23)cc(OC)c1OC (centres unmarked) | -79.3 |
| O=C(Nc1ccccc1)N1CCC2(CC1)OCCO2 | 4.1 |
| C=CCNC(=S)NNC(=O)c1cccnc1 | 12.9 |
| O=C(CNC1CCCCC1)Nc1ccc([N+](=O)[O-])cc1C(=O)Nc1ccccc1F | -33.6 |
| C/C(=N\O)c1ccc2c(c1)OCCO2 | 14.3 |
| O=C(CCSc1ccccc1)Nc1ccccc1C(=O)N1CCCC1 | 9.14 |
| Cc1c(NC(=O)CSc2ccccc2C(=O)Nc2cccnc2)c(=O)n(-c2ccccc2)n1C | 4.72 |
| Cc1ccc(C(=O)N/N=C/c2cn(Cc3ccccc3)c3ccccc23)cn1 | 3.28 |
| COc1ccc(NC(=O)CSc2nc3ccccc3c(=O)n2C)cc1 | 4.53 |
| O=C(O)/C=C\C(=O)Nc1ccc(F)c(F)c1F | 2.16 |
| COc1ccc(N2CCN(S(=O)(=O)c3cn(C)c(=O)n(C)c3=O)CC2)cc1 | -4.07 |
| CCC(C)NC(=O)CC(NS(=O)(=O)c1ccc(C)cc1)c1ccc(OC)cc1 (centres unmarked) | -11.9 |
| ClCc1nc2ccccc2n1Cc1ccccc1 | 10.6 |
| CCc1ccc(CNn2cnnc2SCC(=O)NC(C)(C)C)cc1 | -18.2 |
| Cc1ccc(C(=O)OCC(=O)N(C)C2CCS(=O)(=O)C2)cc1S(=O)(=O)N1CCCCC1 (centres unmarked) | -16.5 |
| CCC1(C)Cc2ccccc2-c2nc[nH]c(=O)c21 (centres unmarked) | 11.3 |
| COC(=O)[C@@H](Cc1c[nH]c2ccccc12)NC(=O)c1ccc2c(c1)OCO2 | 5.01 |
| Cc1ccc(NC(=O)C(C)SCC(=O)Nc2ccc(F)cc2)cc1S(=O)(=O)N1CCOCC1 (centres unmarked) | -7.66 |
| S=C(Nc1cccc(Cl)c1)NC1CCCCC1 | 7.58 |
| O=C(c1ccc(Cl)cc1)N1N=C(c2ccccn2)CC1(O)C(F)(F)F (centres unmarked) | -13.6 |
| CCOC(=O)C1CCN(C(=O)c2ccccc2NS(=O)(=O)c2ccccc2)CC1 | -15.8 |
| COc1cc(NC(=O)CCc2nnc3ccc(N4CCC5(CC4)OCCO5)nn23)cc(OC)c1 | 9.18 |
| CC(C)C(=O)NC(CC(=O)O)c1ccccc1 (centres unmarked) | -1.68 |

| SMILES | hERG current change (%, negative = inhibition) at 10uM [%] |
| --- | --- |
| Cc1ccc(CNC(=O)CN(c2ccc(C)cc2)S(=O)(=O)c2c(C)n[nH]c2C)cc1 | -26.1 |
| O=C(NNC(=O)C12CC3CC(CC(Cl)(C3)C1)C2)c1csc(N2CCOCC2)n1 | -1.63 |
| C=C[C@]1(C)C=C2CCC3[C@](C)(CCC[C@@]3(C)C(=O)O)C2CC1 (some centres unmarked) | 13.3 |
| COc1ccc2c(c1)nc(N)n2Cc1ccccc1 | -23.1 |
| CN(CCc1ccccc1)C1CCCN(C(=O)Cn2cccn2)C1 (centres unmarked) | -1.49 |
| COc1ccc(C)cc1NC(=O)c1c(C)nn(Cc2ccccc2)c1Cl | -0.515 |
| Cc1ccn2c(=O)nc(SCC(=O)NCCc3ccccc3)nc2c1 | -18.8 |
| COc1ccc(NC(=O)c2c(C(F)(F)F)nn(C)c2SCc2ccccc2Cl)cc1 | 5.73 |
| CC(C)Nc1nc2cccnc2s1 | 16.1 |
| CCOC(=O)C(=NC(C)CC)NNc1ccc(Br)cc1 (centres unmarked) | 19.1 |
| CCOC(=O)N1CCN(Cc2c(O)ccc3ccccc23)CC1 | -1.36 |
| C=CCNC(=O)c1cc2nc(C3CC3)cc(C(F)F)n2n1 | 2.36 |
| CC(C)(C)CC(=O)Nc1nn[nH]n1 | 24.3 |
| COc1ccc(NC(=O)CSc2nnc(Cc3cccn3C)n2CCc2ccccc2)c(OC)c1 | -2.48 |
| CCCOc1ccc(C2C(C(=O)c3ccco3)=C(O)C(=O)N2CCCn2ccnc2)cc1 (centres unmarked) | -6.76 |
| O=C(Nc1nnc(COc2ccccc2)s1)c1ccco1 | 10.6 |
| COc1ccccc1-n1c(=O)c(C#N)c(-c2ccc([N+](=O)[O-])cc2)c2cc(C(=O)c3ccccc3O)cnc21 | 4.68 |
| CN(Cc1ccc(F)cc1)C(=O)c1ccc2c(c1)NC(=O)CS2 | -44.4 |
| CC1=C(C#N)CCC(=O)N1Cc1c(F)cccc1Cl | 6.17 |
| Fc1ccc(-c2nc3c(-c4ccc(F)cc4)cnn3cc2CCN2CCOCC2)cc1 | -14.2 |
| S=C(NCc1ccccn1)Nc1ccccc1 | 16.3 |
| C(=N\c1c(-c2ccccc2)nc2n1CCS2)/c1ccccc1 | 11.4 |
| CCc1nnc(NC(=O)c2cc(-c3ccncc3)nc3ccccc23)s1 | 10 |

| SMILES | hERG current change (%, negative = inhibition) at 10uM [%] |
| --- | --- |
| CCCc1n(CC)c2ccccc2[n+]1CC(O)COC1CCCCC1.[I-] (centres unmarked) | -13.6 |
| O=C1CS/C(=C/C(=O)c2cccc(Cl)c2)N1 | -2.13 |
| CC(=O)O.Cc1nc(NCCc2ccc(F)cc2)c(C#N)c(C)c1[N+](=O)[O-] | -28.1 |
| CC(C)C(=O)N(Cc1ccccc1)c1ccccn1 | 7.57 |
| CC(NC(=O)C1CCN(S(=O)(=O)c2cc([N+](=O)[O-])ccc2Cl)CC1)c1ccccc1 (centres unmarked) | 11.5 |
| Cc1cc(Cl)ccc1OCC(=O)NCCOc1nc(N2CCCCC2)nc(N2CCOCC2)n1 | -40 |
| COCCn1c(=O)[nH]c2cc(C(=O)NC3CCCCCC3)ccc2c1=O | -15.3 |
| COC(=O)C1=C(c2ccc(-c3ccccc3)c(F)c2)C[C@@H]2CC[C@H]1N2C(=O)NCc1ccco1 | -16.8 |
| CCc1ccc(C2CC(c3ccccc3C)n3nc(N)nc3N2)cc1 (centres unmarked) | -1.57 |
| CC(=O)c1cccc(NC(=O)c2ccc(N(C)S(C)(=O)=O)cc2)c1 | 9.35 |
| O=C(COC(=O)c1ccc(NS(=O)(=O)c2cccs2)cc1)NCc1ccco1 | 14.8 |
| COC(=O)c1ccc2c(=O)n(CCCCCC(=O)NC(C)C)c(=O)[nH]c2c1 | -31.2 |
| CC(=O)Nc1cc(C(=O)OCC(=O)c2ccccc2)ccc1C | 9.31 |
| CCOc1cc(NC(=O)c2ccccc2C)c(OCC)cc1NC(=O)C1=Cc2ccccc2OC1 | 9.99 |
| O=Cc1c(C(=O)O)n(Cc2ccccc2Cl)c2ccccc12 | 24.3 |
| COc1cccc(NC(=O)C2CCN(S(=O)(=O)c3ccc4c(c3)NC(=O)CO4)CC2)c1 | 16.2 |
| CNCc1cn2cc(Cl)ccc2n1 | -6.71 |
| CC1Cc2ccccc2N1C(=O)COC(=O)c1ccccc1NCCO (centres unmarked) | 1.36 |
| COc1cccc(OCc2cc(C(=O)N(Cc3ccccc3)CC3CC3)no2)c1 | 7.76 |
| CC(=O)c1ccc(NC(=O)c2cc(CC(C)C)nc3ccccc23)cc1 | 9.23 |
| CCC(C)NC(=O)COc1ccc(OCc2ccccc2)cc1 (centres unmarked) | 5.21 |
| CN(C)C(=O)NC1c2ccccc2-c2ccccc21 | 16.7 |
| Clc1nc(Cl)nc(-c2cn(-c3ccccc3)c3ccccc23)n1 | 8.76 |

| SMILES | hERG current change (%, negative = inhibition) at 10uM [%] |
| --- | --- |
| Cc1nn(C)c(C)c1C(C)NC(=O)c1cc(COc2ccc(F)c(F)c2)on1 (centres unmarked) | -14.4 |
| CN(C)c1ccncc1C(=O)Nc1ccc(F)cc1F | -24.9 |
| CC(C)(C)NC(=O)COC(=O)CNC(=O)c1cc(Cl)cc([N+](=O)[O-])c1 | 13.1 |
| COC(CSc1ncnc2c1oc1nc3c(cc12)COC(C)(C)C3)OC | -15.6 |
| Cc1ccc(OCCCC(=O)NC(C)c2ccccc2)cc1 (centres unmarked) | 6.49 |
| CC(Oc1ccccc1)C(=O)N=C1SC2CS(=O)(=O)CC2N1Cc1ccccc1 (centres unmarked) | -11.4 |
| COc1ccc(N2CCN(c3ncnc4sc(C(=O)NCC5CCCO5)c(C)c34)CC2)cc1 (centres unmarked) | -63.4 |
| COc1ccc(CN2CCN(c3ccccc3F)CC2)cc1O | -66.5 |
| CCn1c(SCC(=O)N2CCc3ccccc32)nnc1-c1ccco1 | 1.79 |
| C=C[C@@H]1c2ccccc2N(S(=O)(=O)c2ccc(C)cc2)[C@H](c2ccccc2C(F)(F)F)C1(C#N)C#N | 20.2 |
| COc1ccc(Cl)cc1NC(=O)C(C)N1CCc2ccccc21 (centres unmarked) | 23.9 |
| CCN(CC)CCn1c2c(c(SCC(=O)Nc3ccc(C)c(F)c3)nc1=O)CCC2 | -63.8 |
| CCOc1ccc(CCNC(=O)COC(=O)c2ccc(C)s2)cc1OCC | 14.6 |
| COc1cccc(NC(=O)Nc2cccc(C)n2)c1 | 30.1 |
| COc1ccc(C(=O)c2oc3ccc(OC)cc3c2NC(C)=O)cc1 | 27.6 |
| CC1CCCN(c2ncnc3c2cnn3-c2ccccc2)C1 (centres unmarked) | -1.2 |
| COC(=O)c1cc(S(=O)(=O)NCCc2sccc2C)c[nH]1 | 2.8 |
| COc1ccc(OC)c(-c2csc(NC(=O)Cc3cc(OC)c(OC)c(OC)c3)n2)c1 | 13 |
| Cc1ccc(-c2nc(CS(=O)CC(=O)NC3CC3)c(C)o2)cc1 (centres unmarked) | 6.39 |
| Cc1ccc(OCC(=O)N(Cc2ccccc2)C2CCS(=O)(=O)C2)c([N+](=O)[O-])n1 (centres unmarked) | -12.1 |
